System: Primary T cells
Assay: Cytotoxicity, percentage of viable cells by flow cytometry
Assay type: cell-based
Procedure: Primary T cells are cultured and treated with different concentrations of the test compound. Viability is analysed by measuring through flow cytometry based techniques the percentage of viable cells, compared to untreated control=100%). Toxic dose 50% (TD50) is calculated.
In Tables 2, 3 and 4, ND means Not Determined.

Compound | TD50 (Toxic dose 50%) [µM]
COc1ccccc1-c1cc(Nc2ccc(OC)c([N+](=O)[O-])c2)ncn1 [Example 11, N-(4-Methoxy-3-nitrophenyl)-6-(2-methoxyphenyl)pyrimidin-4-amine] | >1.5
CCOC(=O)c1cc(Nc2cc(-c3ccccc3OC)ncn2)ccc1N1CCOCC1 [Example 18, Ethyl 5-(6-(2-methoxyphenyl)pyrimidin-4-ylamino)-2-morpholinobenzoate] | >0.5
COc1ccc(Nc2cc(-c3cc(F)c(F)cc3OC)ncn2)cc1N [Example 83, N^1-[6-(4,5-Difluoro-2-methoxy-phenyl)-pyrimidin-4-yl]-4-methoxy-benzene-1,3-diamine] | 12
COc1ccccc1-c1cc(Nc2ccc(Cl)c(C(=O)NN)c2)ncn1 [Example 7, 2-Chloro-5-(6-(2-methoxyphenyl)pyrimidin-4-ylamino)benzohydrazide] | >5
COc1ccc(Nc2cc(-c3ccc(F)cc3OC(C)C)ncn2)cc1N [Example 86, N^1-[6-(4-Fluoro-2-isopropoxy-phenyl)-pyrimidin-4-yl]-4-methoxy-benzene-1,3-diamine] | 4
COc1ccc(Nc2cc(-c3ccccc3OC)ncn2)cc1C(N)=O [Example 45, 2-methoxy-5-(6-(2-methoxyphenyl)pyrimidin-4-ylamino)benzamide] | 15
CCOc1ccccc1-c1cc(Nc2ccc(OC)c(N)c2)ncn1 [Example 62, N^1-[6-(2-Ethoxy-phenyl)-pyrimidin-4-yl]-4-methoxy-benzene-1,3-diamine] | 4
COc1ccc(Nc2cc(-c3ccccc3OC)ncn2)cc1Cn1cnc2ccccc21 [Example 31, N-(3-((1H-Benzo[d]imidazol-1-yl)methyl)-4-methoxyphenyl)-6-(2-methoxyphenyl)pyrimidin-4-amine] | 1.8
COc1ccc(Nc2cc(-c3ccccc3OC)ncn2)cc1N [Example 41, 4-Methoxy-N1-(6-(2-methoxyphenyl)pyrimidin-4-yl)benzene-1,3-diamine] | 8.5
COc1ccc(Nc2cc(-c3ccccc3OC)ncn2)cc1C(=O)NCc1ccccc1 [Example 23, N-Benzyl-2-methoxy-5-(6-(2-methoxyphenyl)pyrimidin-4-ylamino)benzamide] | >0.5
COc1ccccc1-c1cc(Nc2ccc(F)c(Cn3cnc4ccccc43)c2)ncn1 [Example 40, N-(3-((1H-Benzo[d]imidazol-1-yl)methyl)-4-fluorophenyl)-6-(2-methoxyphenyl)pyrimidin-4-amine] | 0.4
COc1ccccc1-c1cc(Nc2ccc(N(C)C)c(Cn3cnc4ccccc43)c2)ncn1 [Example 42, 2-((1H-Benzo[d]imidazol-1-yl)methyl)-N4-(6-(2-methoxyphenyl)pyrimidin-4-yl)-N1,N1-dimethylbenzene-1,4-diamine] | 4
COc1ccccc1-c1cc(Nc2ccc(N3CCN(C)CC3)c(Cn3cnc4ccccc43)c2)ncn1 [Example 2, N-(3-((1H-Benzo[d]imidazol-1-yl)methyl)-4-(4-methylpiperazin-1-yl)phenyl)-6-(2-methoxyphenyl)pyrimidin-4-amine] | 0.4
COc1cc(Nc2cc(-c3ccccc3OC)ncn2)ccc1C(N)=O [Example 136, 2-Methoxy-4-[6-(2-methoxy-phenyl)-pyrimidin-4-ylamino]-benzamide] | >2
CCOc1cc(F)ccc1-c1cc(Nc2cc(N)c(OC)c(F)c2)ncn1 [Example 89, N^1-[6-(2-Ethoxy-4-fluoro-phenyl)-pyrimidin-4-yl]-5-fluoro-4-methoxy-benzene-1,3-diamine] | >20
COc1ccc(Nc2cc(-c3ccccc3OC)ncn2)cc1OC(=O)C(C)(C)C [Example 26, 2-methoxy-5-(6-(2-methoxyphenyl)pyrimidin-4-ylamino)phenyl pivalate] | 6
COc1ccc(Nc2cc(-c3ccccc3Oc3ccccc3)ncn2)cc1N [Example 77, 4-Methoxy-N^1-[6-(2-phenoxy-phenyl)-pyrimidin-4-yl]-benzene-1,3-diamine] | 10
CCOc1ccc(Nc2cc(-c3ccccc3OC)ncn2)cc1N [Example 101, 4-Ethoxy-N^1-[6-(2-methoxy-phenyl)-pyrimidin-4-yl]-benzene-1,3-diamine] | 12
COc1ccc(Nc2cc(-c3cc(F)ccc3OC)ncn2)cc1N [Example 75, N^1-[6-(5-Fluoro-2-methoxy-phenyl)-pyrimidin-4-yl]-4-methoxy-benzene-1,3-diamine] | 10
CCOc1ccc(Nc2cc(-c3ccccc3OC)ncn2)cc1Cn1cnc2ccccc21 [Example 39, N-(3-((1H-Benzo[d]imidazol-1-yl)methyl)-4-ethoxyphenyl)-6-(2-methoxyphenyl)pyrimidin-4-amine] | 0.6

Compound | TD50 (Toxic dose 50%) [µM]
COc1ccc(Nc2cc(-c3ccccc3OCc3ccccc3)ncn2)cc1N [Example 71, N^1-[6-(2-Benzyloxy-phenyl)-pyrimidin-4-yl]-4-methoxy-benzene-1,3-diamine] | >10
COc1cc(F)ccc1-c1cc(Nc2cc(N)c(OC)c(F)c2)ncn1 [Example 90, 5-Fluoro-N^1-[6-(4-fluoro-2-methoxy-phenyl)-pyrimidin-4-yl]-4-methoxy-benzene-1,3-diamine] | >20
CNC(=O)c1cc(Nc2cc(-c3ccccc3OC)ncn2)ccc1OC [Example 25, 2-Methoxy-5-(6-(2-methoxyphenyl)pyrimidin-4-ylamino)-N-methylbenzamide] | >0.5
CCOc1ccc(F)cc1-c1cc(Nc2ccc(OC)c(C(N)=O)c2)ncn1 [Example 131, 5-[6-(2-Ethoxy-5-fluoro-phenyl)-pyrimidin-4-ylamino]-2-methoxy-benzamide] | 2
COc1cccc(-c2cc(Nc3ccc(OC)c(N)c3)ncn2)c1 [Example 68, 4-Methoxy-N^1-[6-(3-methoxy-phenyl)-pyrimidin-4-yl]-benzene-1,3-diamine] | >10
COc1ccc(F)cc1-c1cc(Nc2cc(F)c(OC)c(C(N)=O)c2)ncn1 [Example 140, 3-Fluoro-5-[6-(5-fluoro-2-methoxy-phenyl)-pyrimidin-4-ylamino]-2-methoxy-benzamide] | >20
CCOc1ccc(Nc2cc(-c3ccc(F)cc3OC)ncn2)cc1C(N)=O [Example 112, 2-Ethoxy-5-[6-(4-fluoro-2-methoxy-phenyl)-pyrimidin-4-ylamino]-benzamide] | 10
COc1ccccc1-c1cc(Nc2ccc(Cl)c(Cn3cnc4ccccc43)c2)ncn1 [Example 16, N-(3-((1H-benzo[d]imidazol-1-yl)methyl)-4-chlorophenyl)-6-(2-methoxyphenyl)pyrimidin-4-amine] | 1.5
COc1cc(F)ccc1-c1cc(Nc2cc(F)c(OC)c(C(N)=O)c2)ncn1 [Example 138, 3-Fluoro-5-[6-(4-fluoro-2-methoxy-phenyl)-pyrimidin-4-ylamino]-2-methoxy-benzamide] | >20
COc1ccc(Nc2cc(-c3ccccc3OC)ncn2)cc1CN(C)C [Example 35, N-(3-((Dimethylamino)methyl)-4-methoxyphenyl)-6-(2-methoxyphenyl)pyrimidin-4-amine] | 3
CCOc1ccc(F)cc1-c1cc(Nc2cc(C(N)=O)c(OC)cc2F)ncn1 [Example 148, 5-[6-(2-Ethoxy-5-fluoro-phenyl)-pyrimidin-4-ylamino]-4-fluoro-2-methoxy-benzamide] | 1
CCOc1cc(F)ccc1-c1cc(Nc2cc(F)c(OC)c(C(N)=O)c2)ncn1 [Example 139, 5-[6-(2-Ethoxy-4-fluoro-phenyl)-pyrimidin-4-ylamino]-3-fluoro-2-methoxy-benzamide] | >20
COc1ccc(Nc2cc(-c3ccccc3OC)ncn2)cc1CNCc1ccccc1 [Example 1, N-(3-((Benzylamino)methyl)-4-methoxyphenyl)-6-(2-methoxyphenyl)pyrimidin-4-amine] | 3.5
COc1ccccc1-c1cc(Nc2ccc(O)c([N+](=O)[O-])c2)ncn1 [Example 12, 4-(6-(2-methoxyphenyl)pyrimidin-4-ylamino)-2-nitrophenol] | >1.5
CCOc1ccc(Nc2cc(-c3ccc(F)cc3OC)ncn2)cc1N [Example 105, 4-Ethoxy-N^1-[6-(4-fluoro-2-methoxy-phenyl)-pyrimidin-4-yl]-benzene-1,3-diamine] | 7
CNC(=O)c1ccc(Nc2cc(-c3ccccc3OC)ncn2)cc1OC [Example 134, 2-Methoxy-4-[6-(2-methoxy-phenyl)-pyrimidin-4-ylamino]-N-methylbenzamide] | >10
COC(=O)c1cc(Nc2cc(-c3ccccc3OC)ncn2)ccc1O [Example 21, Methyl 2-hydroxy-5-(6-(2-methoxyphenyl)pyrimidin-4-ylamino)benzoate] | >0.5
COc1ccccc1-c1cc(Nc2ccc(N3CCN(C)CC3)c(CO)c2)ncn1 [Example 17] | >0.5
COc1ccc(Nc2cc(-c3ccccc3OC)ncn2)cc1F [Example 22, N-(3-Fluoro-4-methoxyphenyl)-6-(2-methoxyphenyl)pyrimidin-4-amine] | >0.5
COc1ccc(Nc2cc(-c3ccccc3OC)ncn2)cc1C(=O)NCc1ccncc1 [Example 28, 2-Methoxy-5-(6-(2-methoxyphenyl)pyrimidin-4-ylamino)-N-(pyridin-4-ylmethyl)benzamide] | >0.5

Reference: patent US10294218B2 (VIROSTATICS SRL, priority 2012, dated 2019)
